This is one part of the list. Repeats are few or missing, and single values can be far off.
Experiments:
Assay in all cases: cell count relative to DMSO control; melanoma cells; higher = more viable cells
Settings in all cases: library dose: standard library concentration; 72 h
SkMel28 = tested on: SkMel28
SkMel2 = tested on: SkMel2
SkMel30 = tested on: SkMel30
SkMel5 = tested on: SkMel5
UACC257 = tested on: UACC257
UACC62 = tested on: UACC62
WM115 = tested on: WM115
WM1716 = tested on: WM1716
WM1745 = tested on: WM1745
WM3526 = tested on: WM3526
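Note: cells treated in 1,536-well plates, then fixed and DAPI-stained, with nuclei counted from automated high-throughput microscope images.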

| SMILES | cell count (SkMel28) | cell count (SkMel2) | cell count (SkMel30) | cell count (SkMel5) | cell count (UACC257) | cell count (UACC62) | cell count (WM115) | cell count (WM1716) | cell count (WM1745) | cell count (WM3526) |
| --- | --- | --- | --- | --- | --- | --- | --- | --- | --- | --- |
| CN(NC(=O)CC(=O)NN(C)C(=S)c1ccccc1)C(=S)c1ccccc1 + COc1ccc2c(c1)CCC1C2CCC2(C)C(NCCCCCCN3C(=O)C=CC3=O)CCC12 [U73122] (first compound 0.03 µM, partner dose 2 µM) | 110% | 109% | 106% | 105% | 102% | 85.6% | 85% | 59.2% | 92.2% | 85.7% |
| NC(=O)c1ccc(N(C(N)=O)c2c(F)cccc2F)nc1-c1ccc(F)cc1F + CNC(=O)c1cc(Oc2ccc(NC(=O)Nc3ccc(Cl)c(C(F)(F)F)c3)cc2)ccn1 [sorafenib] (first compound 2 µM, partner dose 2 µM) | 85.5% | 90.3% | 96.2% | 95.4% | 91.9% | 68.1% | 92.5% | 98% | 84% | 87.1% |
| Cc1ccc(NC(=O)c2cccc(N(C)C)c2)cc1NC(=O)c1ccc(O)cc1 + O=S(=O)(c1ccccc1)N(CC(F)(F)F)c1ccc(C(O)(C(F)(F)F)C(F)(F)F)cc1 [T0901317] (first compound 10 µM, partner dose 7 µM) | 72.4% | 84.9% | 90.8% | 59.6% | 80% | 80.9% | 94.3% | 113% | 64.7% | 78.3% |
| NC(=O)c1ccc(N(C(N)=O)c2c(F)cccc2F)nc1-c1ccc(F)cc1F + Nc1ncn([C@H]2C[C@H](O)[C@@H](CO)O2)c(=O)n1 [decitabine] (first compound 2 µM, partner dose 0.5 µM) | 87.6% | 116% | 114% | 60.4% | 96.4% | 61.9% | 63.7% | 87.1% | 83% | 102% |
| CCCCCCCCc1ccc(CCC(N)(CO)CO)cc1 [fingolimod] + Nc1cccc2c1CN(C1CCC(=O)NC1=O)C2=O [lenalidomide] (first compound 10 µM, partner dose 5 µM) | 4.04% | 0.5% | 10.6% | 97.2% | 79.9% | 20.6% | 51.3% | 59.3% | 12.4% | 62.3% |
| NC(=O)c1ccc(N(C(N)=O)c2c(F)cccc2F)nc1-c1ccc(F)cc1F + CN(c1ncccc1CNc1nc(Nc2ccc3c(c2)CC(=O)N3)ncc1C(F)(F)F)S(C)(=O)=O [PF562271] (first compound 2 µM, partner dose 0.4 µM) | 76.1% | 62.7% | 79.9% | 68.9% | 74.7% | 78.7% | 73.2% | 85.7% | 58.4% | 74.3% |
| CC(C)(C)c1cnc(CSc2cnc(NC(=O)C3CCNCC3)s2)o1 + O=C1NC(=O)/C(=C/c2ccc(-c3ccc(F)cc3O)o2)S1 [AS252424] (first compound 0.05 µM, partner dose 5 µM) | 82.4% | 78.4% | 108% | 72.8% | 94.3% | 83.5% | 77.1% | 70.9% | 66.8% | 73.9% |
| CCCCCCCCc1ccc(CCC(N)(CO)CO)cc1 [fingolimod] + CO[C@H]1C[C@@H]2CC[C@@H](C)[C@@](O)(O2)C(=O)C(=O)N2CCCC[C@H]2C(=O)O[C@H]([C@H](C)C[C@@H]2CC[C@@H](OCCO)[C@H](OC)C2)CC(=O)[C@H](C)/C=C(\C)[C@@H](O)[C@@H](OC)C(=O)[C@H](C)C[C@H](C)/C=C/C=C/C=C/1C [everolimus] (first compound 10 µM, partner dose 0.1 µM) | 3.97% | 0.476% | 15.1% | 55.9% | 55.2% | 8.69% | 6.85% | 17% | 22.3% | 40.9% |
| CN(NC(=O)CC(=O)NN(C)C(=S)c1ccccc1)C(=S)c1ccccc1 + CCCCCCCCCCCC1=C(O)C(=O)C=C(O)C1=O [Embelin] (first compound 0.03 µM, partner dose 6 µM) | 24.2% | 53.3% | 78.9% | 55% | 82.7% | 55.4% | 32.9% | 72% | 16% | 91% |
| CC(C)(C)c1cnc(CSc2cnc(NC(=O)C3CCNCC3)s2)o1 + CCc1ccc(CCOc2ccc(CC3SC(=O)NC3=O)cc2)nc1 [pioglitazone] (first compound 0.05 µM, partner dose 10 µM) | 47.1% | 79.2% | 98.6% | 72.2% | 95.7% | 72.9% | 97.8% | 84.5% | 76.5% | 104% |
| COc1cc2c(Oc3ccc4[nH]c(C)cc4c3F)ncnc2cc1OCCCN1CCCC1 [cediranib] + O=C(O)C(=O)Nc1sc2c(c1C(=O)O)CCNC2 [TCS401] (first compound 2 µM, partner dose 8.33333 µM) | 139% | 105% | 111% | 65.8% | 85.5% | 88.3% | 89% | 100% | 68.8% | 89.5% |
| Cc1ccc(NC(=O)c2cccc(N(C)C)c2)cc1NC(=O)c1ccc(O)cc1 + Oc1nc(-c2ccc(C(F)(F)F)cc2)nc2c1CSCC2 [XAV939] (first compound 10 µM, partner dose 10 µM) | 77.2% | 111% | 99.1% | 76.7% | 106% | 110% | 108% | 87.2% | 73.9% | 101% |
| NC(=O)c1ccc(N(C(N)=O)c2c(F)cccc2F)nc1-c1ccc(F)cc1F + CC1(C)NC(=O)N(c2ccc([N+](=O)[O-])c(C(F)(F)F)c2)C1=O [nilutamide] (first compound 2 µM, partner dose 5 µM) | 79.4% | 94.4% | 121% | 77.8% | 94.6% | 83.5% | 112% | 141% | 93.7% | 87.7% |
| CCCCCCCCc1ccc(CCC(N)(CO)CO)cc1 [fingolimod] + O=C(O)[C@@H]1[O][Sb](=[O])([O][Sb]2(=[O])[O][C@H]([C@H](O)CO)[C@H](O)[C@H](C(=O)O)[O]2)[O][C@H]([C@H](O)CO)[C@@H]1O [stibogluconate] (first compound 10 µM, partner dose 10 µM) | 62.8% | 60.8% | 17.2% | 66.3% | 61.4% | 22% | 32.4% | 19% | 66.6% | 15.6% |
| NC(=O)c1ccc(N(C(N)=O)c2c(F)cccc2F)nc1-c1ccc(F)cc1F + Clc1ccc(Nc2nnc(Cc3ccncc3)c3ccccc23)cc1 [vatalanib] (first compound 2 µM, partner dose 10 µM) | 101% | 103% | 101% | 59% | 58.8% | 68.1% | 89.1% | 106% | 53.7% | 76.7% |
| CN(NC(=O)CC(=O)NN(C)C(=S)c1ccccc1)C(=S)c1ccccc1 + COc1ccc(COc2ccc(Cc3cnc(N)nc3N)cc2OC)cc1 [GW2580] (first compound 0.03 µM, partner dose 5 µM) | 30.5% | 97% | 101% | 40.1% | 89.5% | 27.9% | 30.6% | 76.4% | 39.3% | 95.8% |
| NC(=O)c1ccc(N(C(N)=O)c2c(F)cccc2F)nc1-c1ccc(F)cc1F + CS(=O)(=O)CCNCc1ccc(-c2ccc3ncnc(Nc4ccc(OCc5cccc(F)c5)c(Cl)c4)c3c2)o1 [lapatinib] (first compound 2 µM, partner dose 4 µM) | 93.8% | 71.3% | 84.1% | 76.6% | 101% | 51.6% | 96.3% | 91.6% | 73% | 77.4% |
| CC(C)(C)c1cnc(CSc2cnc(NC(=O)C3CCNCC3)s2)o1 + Cc1cc(N2CCOCC2)cc2[nH]c(-c3c(NC[C@@H](O)c4cccc(Cl)c4)cc[nH]c3=O)nc12 [BMS536924] (first compound 0.05 µM, partner dose 1 µM) | 55.6% | 61.8% | 83.8% | 53.4% | 95.9% | 67.3% | 92.8% | 97.3% | 48.9% | 77.1% |
| Cc1ccc(NC(=O)c2cccc(N(C)C)c2)cc1NC(=O)c1ccc(O)cc1 + O=C1NC(=O)/C(=C/c2ccc(-c3ccc(F)cc3O)o2)S1 [AS252424] (first compound 10 µM, partner dose 5 µM) | 102% | 85.6% | 104% | 83.8% | 96.3% | 112% | 94.2% | 101% | 89% | 82.3% |
| NC(=O)c1ccc(N(C(N)=O)c2c(F)cccc2F)nc1-c1ccc(F)cc1F + C[C@]1(O)C[C@@H](c2nc(-c3ccc4ccc(-c5ccccc5)nc4c3)c3c(N)nccn32)C1 [OSI906] (first compound 2 µM, partner dose 2 µM) | 84.2% | 81.7% | 102% | 86% | 87.8% | 90.2% | 86.3% | 98.7% | 75.4% | 81% |
| CCc1ccc(CCOc2ccc(CC3SC(=O)NC3=O)cc2)nc1 (stereo not given) [pioglitazone] + Oc1nc(-c2ccc(C(F)(F)F)cc2)nc2c1CSCC2 [XAV939] (first compound 10 µM, partner dose 10 µM) | 67.5% | 95.6% | 90.6% | 82.3% | 76.8% | 115% | 102% | 77.7% | 70.7% | 97.2% |
| Cc1ccc(NC(=O)c2cccc(N(C)C)c2)cc1NC(=O)c1ccc(O)cc1 + O=C(Nc1cccc(Cl)c1)Nc1ncc(CCNc2ncnc3ccsc23)s1 [SNS314] (first compound 10 µM, partner dose 0.004 µM) | 38.6% | 76.4% | 96.5% | 97.2% | 73.1% | 97.6% | 46.8% | 53% | 81.5% | 70.5% |
| CN(NC(=O)CC(=O)NN(C)C(=S)c1ccccc1)C(=S)c1ccccc1 + COc1cc2ncnc(Nc3ccc(Oc4ccccc4)cc3)c2cc1OC [SrcI1] (first compound 0.03 µM, partner dose 10 µM) | 3.45% | 56.1% | 76.6% | 30.4% | 106% | 38.5% | 20.1% | 61% | 32.9% | 63.1% |

Reference: the supplement of paper PMC4604168 (melanoma cell lines)
